Measurements published in the supplement of paper PMC12067230.
This is a noisy data set.

experiment: amyloid nucleation score relative to library mode (yeast Sup35 reporter selection) (log enrichment difference); higher = more amyloid nucleation; sequences are the first 22 residues of the Bri2 peptide extended by up to 12 random residues; conditions: random library (experiment): 1;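 active = nucleation score significantly above 0 at FDR 0.05; inactive = not significantly above 0 or absent from output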
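Also: [psi-pin-] Saccharomyces cerevisiae expressing SupN fusions, induced by 100 µM Cu2SO4, selected 7 d at 30 °C without adenine and uracil, scored by deep sequencing of output versus input.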

Sequence | amyloid nucleation score
EASNCFAIRHFENKFAVETLICPI | inactive
EASNCFAIRHFENKFAVETLICPIAFTFHSCCAG | 7.12
EASNCFAIRHFENKFAVETLICPICIDLWDLGLM | inactive
EASNCFAIRHFENKFAVETLICPIFGAYWCTNWA | 7.87
EASNCFAIRHFENKFAVETLICPIIIPVREST | 6.89
EASNCFAIRHFENKFAVETLICPIL | 1.06
EASNCFAIRHFENKFAVETLICPILKWLQYGAGA | inactive
EASNCFAIRHFENKFAVETLICPIPLRLNVCGSR | inactive
EASNCFAIRHFENKFAVETLICPIRPKTMRRVLR | inactive
EASNCFAIRHFENKFAVETLICPITACLCPARVS | 7.22
EASNCFAIRHFENKFAVETLICPITLTRVETSAG | inactive
EASNCFAIRHFENKFAVETLICPIWCL | 8.42
EASNCFAIRHFENKFAVETLICPIYFTLFILTQR | -0.0572
EASNCFAIRHFENKFAVETLICPIYHFGAFRLTV | -0.219
EASNCFAIRHFENKFAVETLICPK | inactive
EASNCFAIRHFENKFAVETLICPKMAGDDLLD | inactive
EASNCFAIRHFENKFAVETLICPKML | inactive
EASNCFAIRHFENKFAVETLICPKNGRV | inactive
EASNCFAIRHFENKFAVETLICPKSRNTVSMWRS | inactive
EASNCFAIRHFENKFAVETLICPKWMTTPVGLRD | inactive
EASNCFAIRHFENKFAVETLICPL | 0.371

Sequence | amyloid nucleation score
EASNCFAIRHFENKFAVETLICPLAKKRARARRG | -0.0755
EASNCFAIRHFENKFAVETLICPLCMGSELGVEP | 5.13
EASNCFAIRHFENKFAVETLICPLCTSSGLVS | inactive
EASNCFAIRHFENKFAVETLICPLFDLLYINLKG | 6.3
EASNCFAIRHFENKFAVETLICPLKEN | -0.386
EASNCFAIRHFENKFAVETLICPLKWSGKEWMTA | inactive
EASNCFAIRHFENKFAVETLICPLLGRKDLAPRR | 5.58
EASNCFAIRHFENKFAVETLICPLLPCSRVLRFG | inactive
EASNCFAIRHFENKFAVETLICPLLQERPGVDVQ | 1.64
EASNCFAIRHFENKFAVETLICPLLQNIPYRVT | 0
EASNCFAIRHFENKFAVETLICPLLQYIRGSWMR | inactive
EASNCFAIRHFENKFAVETLICPLMESPI | inactive
EASNCFAIRHFENKFAVETLICPLMTCSVMDSRR | 4.52
EASNCFAIRHFENKFAVETLICPLMVTLRVIFRV | inactive
EASNCFAIRHFENKFAVETLICPLPFTIGGPCCV | inactive
EASNCFAIRHFENKFAVETLICPLRQTFVELFLK | inactive
EASNCFAIRHFENKFAVETLICPLSC | inactive
EASNCFAIRHFENKFAVETLICPLSEGFAGGVVC | inactive
EASNCFAIRHFENKFAVETLICPLSNVEMLIRRL | inactive
EASNCFAIRHFENKFAVETLICPLSRDLYCCGEE | 4
EASNCFAIRHFENKFAVETLICPLTRGFKAMRCG | inactive

Sequence | amyloid nucleation score
EASNCFAIRHFENKFAVETLICPLVASAVPSGVW | -0.00976
EASNCFAIRHFENKFAVETLICPLVCAMYQRRTY | 5.07
EASNCFAIRHFENKFAVETLICPLVLNMCSSVNS | inactive
EASNCFAIRHFENKFAVETLICPLVN | inactive
EASNCFAIRHFENKFAVETLICPLVQGQAEGWEN | inactive
EASNCFAIRHFENKFAVETLICPMCTAYWILM | 4.31
EASNCFAIRHFENKFAVETLICPMGTAGRRRRCA | inactive
EASNCFAIRHFENKFAVETLICPMKCCKCCVGER | 4.78
EASNCFAIRHFENKFAVETLICPMKWTVKSTCPA | inactive
EASNCFAIRHFENKFAVETLICPMLWNRVHNASG | inactive
EASNCFAIRHFENKFAVETLICPMMESVVGGGVR | 0.903
EASNCFAIRHFENKFAVETLICPMNFRLVTGCEW | 3
EASNCFAIRHFENKFAVETLICPMSHMKD | inactive
EASNCFAIRHFENKFAVETLICPMTFSSFVCADK | 6.34
EASNCFAIRHFENKFAVETLICPMV | inactive
EASNCFAIRHFENKFAVETLICPMVCGKGAEMRG | inactive
EASNCFAIRHFENKFAVETLICPMVMCGPDRRIR | inactive
EASNCFAIRHFENKFAVETLICPMYRCSN | inactive
EASNCFAIRHFENKFAVETLICPNAQFKASGCFS | inactive
EASNCFAIRHFENKFAVETLICPNASTRQGVPAG | -0.331

same assay, conditions: random library (experiment): 2

Sequence | amyloid nucleation score
EASNCFAIRHFENKFAVETLICPIHVVRSYISVP | -0.358
EASNCFAIRHFENKFAVETLICPIRSLTGRTNSR | inactive
EASNCFAIRHFENKFAVETLICPIWPH | inactive
EASNCFAIRHFENKFAVETLICPKAFDVNLYWS | 4.95
EASNCFAIRHFENKFAVETLICPKCTLHGSVQWV | inactive
EASNCFAIRHFENKFAVETLICPKKFLSINVYSK | 3.21
EASNCFAIRHFENKFAVETLICPKKVGLVSNGRI | 0.151
EASNCFAIRHFENKFAVETLICPKVLVFQPLRSV | 5.4
EASNCFAIRHFENKFAVETLICPLANTR | inactive
EASNCFAIRHFENKFAVETLICPLIFISDYPAYF | 6.09
EASNCFAIRHFENKFAVETLICPLKTVWLCNF | 4.31
EASNCFAIRHFENKFAVETLICPLLCGFYHYGSW | 7.59
EASNCFAIRHFENKFAVETLICPLLFVDWSTDKA | 7.13
EASNCFAIRHFENKFAVETLICPLLGL | inactive
EASNCFAIRHFENKFAVETLICPLRNSSIRCQNM | 0.938
EASNCFAIRHFENKFAVETLICPLSFNAGLLN | inactive
EASNCFAIRHFENKFAVETLICPLSGYFSAHRRG | 5.96
EASNCFAIRHFENKFAVETLICPLTYL | inactive
EASNCFAIRHFENKFAVETLICPM | inactive
EASNCFAIRHFENKFAVETLICPMCCILVYVWLA | inactive
EASNCFAIRHFENKFAVETLICPMCLRLYPILFR | inactive
EASNCFAIRHFENKFAVETLICPMCSC | inactive
EASNCFAIRHFENKFAVETLICPMHALRVFLRMV | inactive
EASNCFAIRHFENKFAVETLICPMHIYFSFFFSS | inactive
EASNCFAIRHFENKFAVETLICPMNYRTILFWNK | 3.44
EASNCFAIRHFENKFAVETLICPMRFNMYARLKL | 0

same assay, conditions: random library (experiment): 3

Sequence | amyloid nucleation score
EASNCFAIRHFENKFAVETLICPICR | inactive
EASNCFAIRHFENKFAVETLICPIIMFYYGAHRG | 6.95
EASNCFAIRHFENKFAVETLICPILMRSHMAEGA | inactive
EASNCFAIRHFENKFAVETLICPIMHICVFVVPR | 4.5
EASNCFAIRHFENKFAVETLICPIRNGGSCLPNS | inactive
EASNCFAIRHFENKFAVETLICPITCTDLSGRGW | 7.08
EASNCFAIRHFENKFAVETLICPIVTA | inactive
EASNCFAIRHFENKFAVETLICPKCQSVGPCVQG | 3.17
EASNCFAIRHFENKFAVETLICPKCWVGAHSRLS | inactive
EASNCFAIRHFENKFAVETLICPKISSEAAACLV | inactive
EASNCFAIRHFENKFAVETLICPKWVNYPGRG | 2.58
EASNCFAIRHFENKFAVETLICPLCDDLIFRMFH | inactive
EASNCFAIRHFENKFAVETLICPLCHVLV | inactive
EASNCFAIRHFENKFAVETLICPLGGVGYNEYGS | inactive
EASNCFAIRHFENKFAVETLICPLILQFRHFPRP | inactive
EASNCFAIRHFENKFAVETLICPLMSCYKRACDT | inactive

Sequence | amyloid nucleation score
EASNCFAIRHFENKFAVETLICPLPPRYMFELEG | inactive
EASNCFAIRHFENKFAVETLICPLPVQAGRVCRL | inactive
EASNCFAIRHFENKFAVETLICPLSRMSPGTYYR | inactive
EASNCFAIRHFENKFAVETLICPLWDRSHTGSVV | inactive
EASNCFAIRHFENKFAVETLICPLWGPMTPLVLC | inactive
EASNCFAIRHFENKFAVETLICPMANV | 0.49
EASNCFAIRHFENKFAVETLICPMEVSRGECVAR | inactive
EASNCFAIRHFENKFAVETLICPMLCKNSRILLM | inactive
EASNCFAIRHFENKFAVETLICPMLNSFSDIEEG | inactive
EASNCFAIRHFENKFAVETLICPMPVSGMGRTRG | inactive
EASNCFAIRHFENKFAVETLICPMRKRSVVLAFQ | inactive
EASNCFAIRHFENKFAVETLICPMRMGPRQTTRG | inactive
EASNCFAIRHFENKFAVETLICPMRYTVVALIK | inactive
EASNCFAIRHFENKFAVETLICPMSR | inactive
EASNCFAIRHFENKFAVETLICPMSVMPNAGVRM | inactive
